# Screen size: about 270,000 compounds; about 620 (0.23%) were called active. Inconclusive results, whose numbers are uncertain, are shown with a selection of clear calls. Calls follow the shape of the dose curve; as a rule, active = well fitted inhibition curve with a large enough effect in the polarisation, with a control signal flat (not every such curve was filed as active); inconclusive = small, poorly fitted or top-dose-only effect, or effect the other way, or a change in a side signal; inactive = no such curve, though single readings can be large or run the other way; the % refers to the polarisation. Potencies beside an inconclusive call are fits to weak or partial responses and may not hold up. “Side channel” marks fits to a control or component signal instead of the main read-out.
# Target: Menin (Homo sapiens) (UniProt O00255)
# Experiment: qHTS Assay for Inhibitors Targeting the Menin-MLL Interaction in MLL Related Leukemias: Competition With Texas Red Labeled MLL-derived Mutant Peptide; as to FP activity change, negative = inhibition: % of control where 0% means no effect
# Details: fluorescence polarization; FP activity change, negative = inhibition: at 61.6 µM (top of the series)
# Potency is read from the fitted curve at half-maximal effect; tags tell the direction and shape of the fitted curve or compound fluorescence and quenching.
# Chain of UniProt O00255 (O00255 whole entry, looked up): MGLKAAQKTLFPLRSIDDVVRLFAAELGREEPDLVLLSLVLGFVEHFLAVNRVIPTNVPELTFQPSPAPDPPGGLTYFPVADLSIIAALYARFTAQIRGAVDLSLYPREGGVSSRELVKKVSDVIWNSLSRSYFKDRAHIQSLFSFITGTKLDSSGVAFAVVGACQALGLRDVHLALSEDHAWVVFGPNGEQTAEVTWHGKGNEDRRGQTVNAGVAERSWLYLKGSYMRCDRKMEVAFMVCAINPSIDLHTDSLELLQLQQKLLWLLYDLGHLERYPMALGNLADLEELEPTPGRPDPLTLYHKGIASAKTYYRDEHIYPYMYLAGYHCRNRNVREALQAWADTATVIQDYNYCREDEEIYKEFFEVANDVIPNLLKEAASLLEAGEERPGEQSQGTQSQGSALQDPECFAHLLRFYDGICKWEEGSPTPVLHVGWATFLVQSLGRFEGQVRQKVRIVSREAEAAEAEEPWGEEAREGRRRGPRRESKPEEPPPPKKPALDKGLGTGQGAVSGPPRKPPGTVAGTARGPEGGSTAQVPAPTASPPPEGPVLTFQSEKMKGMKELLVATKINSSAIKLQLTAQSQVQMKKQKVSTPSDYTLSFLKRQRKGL
SMILES,Potency,"FP activity change, negative = inhibition"
Cc1cc(N)n(-c2ccc(C)c(C)c2)n1,"inconclusive: 39.8 µM [fluorescent, side channel, partial curve]",–
Cc1ccc(CN(C)Cc2cc(=O)oc3cc(C)c(Cl)cc23)cc1,"inconclusive: 10 µM [fluorescent, side channel, partial curve]",–
O=C(O)c1ccc2c(=O)n(Cc3ccccc3)c(SCc3ccc([N+](=O)[O-])cc3)nc2c1,"inconclusive: 12.6 µM [quencher, side channel, partial curve]",–
CO[C@H]1COC(=O)[C@@H](Cc2ccccc2)NC(=O)[C@@H](C)COC(=O)C/C=C\[C@@H]1C,–,inactive: 24% [at 11.7 µM]
COC(=O)c1ccccc1NC(=O)COC(=O)c1ccccc1N=Nc1ccc(N(C)C)cc1,"inconclusive: 8.91 µM [quencher, side channel, partial curve]",–
COc1cccc2sc(NN)nc12,"inconclusive: 28.2 µM [quencher, side channel, partial curve]",–
Cc1ccc(C)c(N=Cc2ccc(-c3ccc([N+](=O)[O-])cc3)o2)c1,"inconclusive: 12.6 µM [quencher, side channel, partial curve]",–
O=C(Cn1cnc2c(cnn2-c2ccc(F)cc2)c1=O)OCc1ccccc1,"inconclusive: 25.1 µM [inhibitor, single point]",–
CCc1ccc(-n2c(=S)sc3c(=O)n(-c4ccccc4)c(SCC(=O)O)nc32)cc1,"inconclusive: 35.5 µM [quencher, side channel, single point]",–
CCCCCCCCCCCCCCCCn1cc[n+](C)c1,"inconclusive: 8.91 µM [fluorescent, side channel, partial curve]",–
Cc1[nH]c2ccc(F)cc2c1CCN(Cc1ccncc1)C(=S)Nc1cccc(F)c1,"inconclusive: 3.55 µM [quencher, side channel, partial curve]",–
COc1ccccc1CNS(=O)(=O)c1ccc2c(c1)CC(C)N2C(=O)C1CCC1 (configuration not stated),inactive,–
Cc1nc(NC(=O)c2ccccc2O)sc1C,"inconclusive: 28.2 µM [fluorescent, side channel, single point]",–
CCOP(=O)(OCC)C(NC(=O)Nc1ccc(C)c(Cl)c1)c1ccccc1 (configuration not stated),inactive,–
Cc1ccc(OCCNC(=O)C2CCCCC2)cc1,"inconclusive: 17.8 µM [fluorescent, side channel, single point]",–
O=c1oc2ccccc2c2c1C1O[C@](c3ccsc3)(Cc3ccccc31)O2,"inconclusive: 3.16 µM [quencher, side channel, single point]",–
CC(C)n1c2ccccc2c2nc3ccccc3nc21,inactive,–
O=C(Nc1nc2ccccc2[nH]1)c1ccc(S(=O)(=O)N2CCOCC2)cc1,"inconclusive: 22.4 µM [quencher, side channel, single point]",–
CC(=O)OC1CCC2C3CCc4cc(O)ccc4C3CCC12C (configuration not stated),"inconclusive: 28.2 µM [fluorescent, side channel, single point]",–

SMILES,Potency,"FP activity change, negative = inhibition"
NC(=O)c1ccc(NC(=O)CCc2nc3ccccc3s2)cc1,"inconclusive: 22.4 µM [quencher, side channel, partial curve]",–
Cc1cccc(N2CC(C(=O)Nc3nnc(SCc4cccnc4)s3)CC2=O)c1 (configuration not stated),"inconclusive: 22.4 µM [quencher, side channel, partial curve]",–
Nc1cc2c(cc1C(=O)c1cccc(Br)c1)OCCO2,"inconclusive: 25.1 µM [quencher, side channel, partial curve]",–
Cc1ccc(C(=O)NC(=S)Nc2cccc(NC(=O)c3ccccc3Cl)c2)cc1[N+](=O)[O-],"inconclusive: 31.6 µM [quencher, side channel, single point]",–
O=C(NCCCO)c1cc2c(cn1)[nH]c1ccccc12,"inconclusive: 3.55 µM [fluorescent, side channel, single point]",–
CC(NC(N)=O)C(=O)Nc1ccc(Cl)c(S(=O)(=O)Nc2ccc(Br)cc2)c1 (configuration not stated),"inconclusive: 22.4 µM [quencher, side channel, single point]",–
Cc1ccc(C(=O)Nc2nnc(S(=O)(=O)N3CCC(C)CC3)s2)cc1,"inconclusive: 39.8 µM [inhibitor, single point]",–
Cc1ccc(-n2[nH]c(C)c(C=NC34CN5CN(CN(C5)C3)C4)c2=O)cc1C,"inconclusive: 22.4 µM [inhibitor, single point]",–
CC(C)N1CCc2c(sc(NC(=O)c3cc4cc([N+](=O)[O-])ccc4s3)c2C(N)=O)C1,"inconclusive: 15.8 µM [quencher, side channel, partial curve]",–
COc1ccc2nc(Nc3nc4ccc(NC(C)=O)cc4s3)sc2c1,"inconclusive: 20 µM [quencher, side channel, partial curve]",–
Cc1cc(C)nc(NS(=O)(=O)c2ccc(NC(=O)CN3C(=O)S/C(=C\c4ccccc4)C3=O)cc2)n1,"inconclusive: 31.6 µM [quencher, side channel, single point]",–
CCc1ccc(CN(C)C(=O)CCc2nnc(-c3ccc(-c4ccccc4)cc3)o2)nc1,"inconclusive: 7.08 µM [fluorescent, side channel, full curve]",–
CCCc1nc(SCC(=O)N2CCC(Cc3ccccc3)CC2)c2c(=O)n(C)c(=O)n(C)c2n1,"inconclusive: 7.94 µM [fluorescent, side channel, full curve, poor fit]",–
CS(=O)(=O)Cc1nc2ccccc2oc1=O,inactive,–
CSc1ccc(NC(=O)NCCCN2CCC(Cc3ccccc3)CC2)cc1,"inconclusive: 14.1 µM [inhibitor, partial curve]",–
Cc1ccc(Cn2c(SCC(C)C)nc3c2c(=O)n(C)c(=O)n3C)cc1,"inconclusive: 7.94 µM [fluorescent, side channel, partial curve]",–
CCOc1ccc(OCc2ccc(C(=O)N/N=C(\C)c3ccccn3)cc2)cc1,inactive,–
COC(=O)N/N=C/c1ccc([N+](=O)[O-])o1,inactive,–
O=[N+]([O-])c1ccc(/C=N/Nc2cc(Cl)nc(-c3ccccc3)n2)cc1,"inconclusive: 3.55 µM [quencher, side channel, full curve]",–

SMILES,Potency,"FP activity change, negative = inhibition"
O=C(CNC(=O)C1COc2ccccc2O1)N/N=C/c1ccc([N+](=O)[O-])cc1 (configuration not stated),"inconclusive: 22.4 µM [quencher, side channel, partial curve]",–
C=C1C[C@H](OC(=O)C(C)(O)CCl)C2C(=C)C(=O)O[C@@H]2C2C1C[C@H](O)[C@]2(O)CCl (some centres not stated),"inconclusive: 28.2 µM [quencher, side channel, partial curve]",–
Cc1cccc(NC(=O)COc2nsnc2N2CCOCC2)c1,"inconclusive: 6.31 µM [fluorescent, side channel, single point]",–
CC(=C/c1ccc(C(C)C)cc1)/C=N/NC(=O)Cn1nc(C)cc1C,"inconclusive: 17.8 µM [fluorescent, side channel, partial curve]",–
CC(CNC(=S)Nc1cc(F)cc(F)c1)CSc1ccc(Cl)cc1 (configuration not stated),"inconclusive: 17.8 µM [quencher, side channel, partial curve]",–
CN(C)C(=O)c1ccc(Nc2nnc(-c3ccc(O)cc3)c3ccccc23)cc1,"inconclusive: 1.78 µM [inhibitor, full curve, poor fit]",–
Cc1cc2cc(CNC(=O)c3ccc4c(c3)OCO4)ccc2n1C,"inconclusive: 22.4 µM [fluorescent, side channel, partial curve]",–
Cc1nnc(NC(=O)c2ccc(S(=O)(=O)N3CCc4ccccc4C3)cc2)o1,"inconclusive: 25.1 µM [quencher, side channel, single point]",–
CCCNC(=O)c1ccc(-c2nn(C)c(=O)c3ccccc23)cc1,"inconclusive: 11.2 µM [inhibitor, partial curve]",–
CCCC(=O)Nc1ccc(C(=O)NNC(=O)COc2ccc(Br)c(C)c2)cc1,"inconclusive: 5.62 µM [inhibitor, full curve]",–
CCc1ccccc1N(C(=O)c1cccs1)C1C=CS(=O)(=O)C1 (configuration not stated),"inconclusive: 3.16 µM [inhibitor, partial curve]",–
Cc1ccc(-c2ccc(=O)[nH]n2)cc1,"inconclusive: 39.8 µM [inhibitor, single point]",–
CCN(CC)CCNCc1cc(Cl)c(OCC(=O)Nc2ccccc2)c(OC)c1,"inconclusive: 39.8 µM [fluorescent, side channel, single point]",–
N/C(Cc1cccc2ccccc12)=N\OC(=O)Cc1cccs1,"inconclusive: 20 µM [quencher, side channel, partial curve]",–
O=C(Nc1cc(C(F)(F)F)ccc1Cl)c1cc(C2CC2)on1,"inconclusive: 5.01 µM [inhibitor, partial curve]",–
COC(=O)[C@@]1(Cc2ccc(OC)cc2)[C@H]2c3cc(C(=O)N(C)C)n(Cc4ccc(C)o4)c3C[C@H]2CN1C(=O)c1ccccc1,inactive,–
CCC(=O)N1CCc2cc(Br)cc(S(=O)(=O)NCCN3CCCC3)c21,inactive,–
COc1ccccc1CN1C[C@@H]2C[C@@H](c3cccc(O)c3)N3CCC[C@@]23C1=O,"inconclusive: 15.8 µM [fluorescent, side channel, partial curve]",–
COC(=O)CSc1nnc(-c2sc3ccccc3c2Cl)o1,"inconclusive: 39.8 µM [fluorescent, side channel, single point]",–

# Source: PubChem BioAssay AID1768 (National Center for Advancing Translational Sciences (NCATS), 2009)
